# Experimental data reported in a collection of fitness landscapes (doi:10.1016/j.celrep.2020.107928).
# Over roughly 81,000 sequences, “one-hybrid fitness for binding NBS DNA” has its median near -0.1; the highest 2% begin near 0.36. This is one part of the list.
# B1: Caulobacter ParB omega fusion; a variant is named by its letters at X, in order, B8GW30 (parent)
# chain: MESVVVGEPGMSEGRRGLGRGLSALLGEVDAAPAQAPGEQLGGSREAPIEILQRNPDQPRRTFREEDLEDLSNSIREKGVLQPILVRPSPDTAGEYQIVAGERAWRAAQRAGLKTVPIMVRELDDLAVLEIGIIENVQRADLNVLEEALSYKVLMEKFERTQENIAQTIGKSXSHVANXMRLLXLPDEVQSYLVSGELTAXHARAIAAAADPVALAKQIIEGGLSVRETEALARKAPNLSAGKSKGGRPPRVKDTDTQALESDLSSVLGLDVSIDHRGSTGTLTITYATLEQLDDLCNRLTRGI
# Variants of: B1
# Experiment: one-hybrid fitness for binding NBS DNA (the Noc-binding site; scaled: cognate 1, non-cognate 0); higher = stronger binding
# Conditions: with NBS DNA site
# Procedure, shortened: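 The reporter was HIS3, with the binding site 19 bp from the promoter, in E. coli USO used for bacterial one-hybrid selection of Caulobacter ParB libraries with four specificity codons randomised. Growth was on M9 lacking histidine, with 0.1 mM IPTG and 5 mM 3-AT, for 48 hours at 37°C. Illumina sequencing covered plasmids before and after selection; three replicate libraries were pooled and variants with under 10 reads dropped. A fitness score is the log change in variant-to-wild-type read ratio, rescaled to the cognate and non-cognate references.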
row,Variant,one-hybrid fitness for binding NBS DNA
1,RFGV,≤ 0.2
2,CMTI,≤ 0.2
3,EMIC,≤ 0.2
4,YEGP,≤ 0.2
5,GPLF,≤ 0.2
6,PDTC,≤ 0.2
7,RMNL,≤ 0.2
8,CCMW,≤ 0.2
9,LRVA,≤ 0.2
10,NAAY,≤ 0.2
11,RAGF,≤ 0.2
12,SAYI,≤ 0.2
13,RFVL,≤ 0.2
14,GRLL,≤ 0.2
15,HRIG,≤ 0.2
16,VQCF,≤ 0.2
17,YLGL,≤ 0.2
18,KSMR,≤ 0.2
19,RRIQ,0.235
20,PHMT,≤ 0.2
21,LYHD,≤ 0.2
22,FPHG,≤ 0.2
23,DLEP,≤ 0.2
24,SSLY,≤ 0.2
25,KCGC,≤ 0.2

row,Variant,one-hybrid fitness for binding NBS DNA
1,SQSS,≤ 0.2
2,RAHT,0.427
3,KMCT,≤ 0.2
4,AFDL,≤ 0.2
5,GMYT,≤ 0.2
6,LDAP,≤ 0.2
7,HYAQ,≤ 0.2
8,TRIG,≤ 0.2
9,VTEW,≤ 0.2
10,HRHR,≤ 0.2
11,TPAM,≤ 0.2
12,IPLS,≤ 0.2
13,HSCH,≤ 0.2
14,HEKA,≤ 0.2
15,ERSC,≤ 0.2
16,KTTN,≤ 0.2
17,KTNF,≤ 0.2
18,FCYE,≤ 0.2
19,DTNH,≤ 0.2
20,FHIG,≤ 0.2
21,TAKT,≤ 0.2
22,FSGT,≤ 0.2
23,SQVT,≤ 0.2
24,LSYL,≤ 0.2
25,PMKR,≤ 0.2

row,Variant,one-hybrid fitness for binding NBS DNA
1,HWER,≤ 0.2
2,ISNS,≤ 0.2
3,QPTH,≤ 0.2
4,VNRE,≤ 0.2
5,LPRS,≤ 0.2
6,LTSY,≤ 0.2
7,STCC,≤ 0.2
8,QWPM,≤ 0.2
9,QCYD,≤ 0.2
10,RSKK,≤ 0.2
11,FHRW,≤ 0.2
12,IPCS,≤ 0.2
13,QLYV,≤ 0.2
14,LMVC,≤ 0.2
15,SCYF,≤ 0.2
16,WERT,≤ 0.2
17,TVYL,≤ 0.2
18,YPGY,≤ 0.2
19,VHTR,≤ 0.2
20,QHAE,≤ 0.2
21,IRSD,≤ 0.2
22,TPGP,≤ 0.2
23,HCAN,≤ 0.2
24,LKSP,≤ 0.2
25,YPPK,≤ 0.2

row,Variant,one-hybrid fitness for binding NBS DNA
1,TTHG,≤ 0.2
2,DMKI,≤ 0.2
3,VINA,≤ 0.2
4,HTVA,≤ 0.2
5,HNTP,≤ 0.2
6,WAST,≤ 0.2
7,TQYQ,≤ 0.2
8,NQRL,≤ 0.2
9,RIGT,0.403
10,LPRA,≤ 0.2
11,DLRH,≤ 0.2
12,YRAY,≤ 0.2
13,ATDA,≤ 0.2
14,PPDD,≤ 0.2
15,SDTV,≤ 0.2
16,YLNC,≤ 0.2
17,DFAT,≤ 0.2
18,TTHM,≤ 0.2
19,YVNG,≤ 0.2
20,WFQR,≤ 0.2
21,GDPY,≤ 0.2
22,WGPT,≤ 0.2
23,MEAP,≤ 0.2
24,VAEF,≤ 0.2
25,WTAW,≤ 0.2

row,Variant,one-hybrid fitness for binding NBS DNA
1,QPRH,≤ 0.2
2,LGIR,≤ 0.2
3,VVHS,≤ 0.2
4,PVHC,≤ 0.2
5,PKNR,≤ 0.2
6,DNMG,≤ 0.2
7,QPMR,≤ 0.2
8,AVPN,≤ 0.2
9,WEVL,≤ 0.2
10,MTYF,≤ 0.2
11,TGPV,≤ 0.2
12,RWCY,≤ 0.2
13,RQYF,≤ 0.2
14,TGQD,≤ 0.2
15,IRNL,≤ 0.2
16,FAAC,≤ 0.2
17,PANL,≤ 0.2
18,LCAG,≤ 0.2
19,RFCT,≤ 0.2
20,YTHR,≤ 0.2
21,LEPT,≤ 0.2
22,NTKT,≤ 0.2
23,CYQG,≤ 0.2
24,NKSL,≤ 0.2
25,KYNC,≤ 0.2

row,Variant,one-hybrid fitness for binding NBS DNA
1,QCPR,0.37
2,GARC,≤ 0.2
3,THCA,≤ 0.2
4,AYWS,≤ 0.2
5,FLGC,≤ 0.2
6,CERR,≤ 0.2
7,MCKS,≤ 0.2
8,PVNL,≤ 0.2
9,GERS,≤ 0.2
10,MKRT,≤ 0.2
11,HNLR,≤ 0.2
12,DMMV,≤ 0.2
13,HARL,≤ 0.2
14,NGQF,≤ 0.2
15,QHQL,≤ 0.2
16,PRDY,≤ 0.2
17,PGKT,≤ 0.2
18,RHGF,≤ 0.2
19,PNKY,≤ 0.2
20,GPPS,≤ 0.2
21,RVDG,≤ 0.2
22,ATST,≤ 0.2
23,QEMW,≤ 0.2
24,KVED,≤ 0.2
25,HLIP,≤ 0.2

row,Variant,one-hybrid fitness for binding NBS DNA
1,NKWC,≤ 0.2
2,IPNS,≤ 0.2
3,QWKV,≤ 0.2
4,IKCR,≤ 0.2
5,MVGS,≤ 0.2
6,AADT,≤ 0.2
7,KGPR,≤ 0.2
8,VHLG,≤ 0.2
9,YHPG,≤ 0.2
10,ITRF,≤ 0.2
11,ENLG,≤ 0.2
12,WDGT,≤ 0.2
13,EALA,≤ 0.2
14,LIQD,≤ 0.2
15,DVVC,≤ 0.2
16,HVYT,≤ 0.2
17,YPPM,≤ 0.2
18,QAIA,≤ 0.2
19,QGST,≤ 0.2
20,LAWT,≤ 0.2
21,CVAS,≤ 0.2
22,VAHT,≤ 0.2
23,VHWT,≤ 0.2
24,NTQF,≤ 0.2
25,MYLS,≤ 0.2

row,Variant,one-hybrid fitness for binding NBS DNA
1,MVGG,≤ 0.2
2,WPLC,≤ 0.2
3,QVGG,≤ 0.2
4,THSS,≤ 0.2
5,LNLC,≤ 0.2
6,YQQT,≤ 0.2
7,FVGC,≤ 0.2
8,LIKY,≤ 0.2
9,TDKD,≤ 0.2
10,FCLG,≤ 0.2
11,RPSY,≤ 0.2
12,QSAQ,≤ 0.2
13,MSVS,≤ 0.2
14,RWAK,≤ 0.2
15,RQPE,≤ 0.2
16,QVRW,≤ 0.2
17,NWRI,≤ 0.2
18,DILG,≤ 0.2
19,QALF,≤ 0.2
20,HYYK,≤ 0.2
